{"source": "paper PMC12136788", "binders": {"B1": {"name": "ENSG00000198589:be:win_4151|CDS|ENSG00000198589|bound_else_gene|NA|bound_elsewhere_windowed (ssRNA)", "RNA": "GGGAGUUCUACAGUCCGACGAUCCGGCUACACAUGAACUGGAAAAUAUUGAACCUACUCAAGGCCUUUCAAUAGAAGCCUCUGUGACAUUUUUGCAGAGGCUAAUUAGCCUUGUGGAUGUGCUUAUAUUUGCAAGUUCUCUUGCAACAGAGGAUUGAGCAUCA"}, "B2": {"name": "chr5:69350983:69352230:-|three_prime_utr|ENSG00000085231|control|control|control (ssRNA)", "RNA": "GGGAGUUCUACAGUCCGACGAUCCACAGCAUCCUACAAGGAAGAAAUCGUGCAUCAGCUGCCCAGUAAUAAACCAGAAGAGCUAGAAAAUAAUGUAGAUCAGAUCUUGAAAUGGAUUGAGCAGUGGAUCAAAGAUCAUAACUCCAACAGAGGAUUGAGCAUCA"}, "B3": {"name": "chrX:149581652:149582231:-|three_prime_utr|ENSG00000267978|control|control|control (ssRNA)", "RNA": "GGGAGUUCUACAGUCCGACGAUCCAAAUGUUCUUUUAAUGGUCAGUUUAAUGAACUUCACCAUCGAAGUUAAUGAAUGACAGUAGUCACACAUAUUGCUGUUUAUGUUAUUUAGGAGUAAGAUUCUUGCUUUUGAGUCACAUGCAACAGAGGAUUGAGCAUCA"}, "B4": {"name": "ENSG00000104231:stop:overlap|stop_codon|ENSG00000104231|stop_codon|NA|stop_codon (ssRNA)", "RNA": "GGGAGUUCUACAGUCCGACGAUCUCUUGGAAUAUCUUAAUGAUGAAGAACAAUUCUGUAAAAAUGUUGAAUCUUACUUGGAAUAGUCAUUCAAAGAUUCAAGUCAGAAAUCACAGGGAAAAUUCUAUUACAUGUUUAAGUCCACAACAGAGGAUUGAGCAUCA"}, "B5": {"name": "chr8:54147534:54147638:+|CDS|ENSG00000137547|unk|FALSE|unique (ssRNA)", "RNA": "GGGAGUUCUACAGUCCGACGAUCAAGUAUGGUUAUAUCUUACCUGAUAUCACUAAAGAUGAACUCUUCAAAAUGCUCUGUACUAGGAAGGAUCCAAGGCAGAUUUUCUUUGGUCUUGCUCCAGGAUGGGUGGUGAAUAUGGCCCAACAGAGGAUUGAGCAUCA"}, "B6": {"name": "chr12:98549714:98549829:+|3pUTR|ENSG00000120802|unk|total|mutant (ssRNA)", "RNA": "GGGAGUUCUACAGUCCGACGAUCGAAGAUGUAUAUUCCGACCAGCACACAAUUUUGAUUUCAAUCCGCCUUAUUCUAAUAUUCCGCUUUCCGAUCUUUCAUACACAUUUUCACGUACUUUGCAAUUGAGACCAGAAAGACUUGCAACAGAGGAUUGAGCAUCA"}, "B7": {"name": "chr1:168200228:168200338:+|3pUTR|ENSG00000143155|unk|FALSE|unique (ssRNA)", "RNA": "GGGAGUUCUACAGUCCGACGAUCUAUUUUCUGGAGUUAAAUUUGGAUGAUUUCUAAAUUAUCACAAAGUGGGACCUCAGCAGUAGUGAUGUGUGUGUCUCAUGAGCAGUGAGCACAGUCUGCAUUCAUCAUGAAACACUAUCUCAACAGAGGAUUGAGCAUCA"}, "B8": {"name": "chr11:112063736:112063838:+|3pUTR|ENSG00000150768|unk|FALSE|unique (ssRNA)", "RNA": "GGGAGUUCUACAGUCCGACGAUCGAGAGAAAAAAUUAACUAGGUUGCUACUUUAUUUGCCUAAAUACUUUUUUCUAUUUUGUUAGAUUUUGCCUUUCUUUUGGAAGGAAGGAGGCGAUAUUCUGGAUUAUAAAAAUGAAUUGGCAACAGAGGAUUGAGCAUCA"}, "B9": {"name": "chrX:101625945:101626046:+|CDS|ENSG00000102401|unk|total|mutant (ssRNA)", "RNA": "GGGAGUUCUACAGUCCGACGAUCAGGUUCACUUUUUUUCUUUUUAAAAGAAUUUCAAGUGUGUGCUGAUAAGGUUCUGGGAACCGAAAGUCACCAUGAUUUUUUGGUGAAAGUAAAAGUUGGAAAAUUCAUGGCCAAACUUGCCAACAGAGGAUUGAGCAUCA"}, "B10": {"name": "chr2:130346496:130346597:+|3pUTR|ENSG00000136718|unk|FALSE|unique (ssRNA)", "RNA": "GGGAGUUCUACAGUCCGACGAUCACUCAGUCAGGACAUGGACUUGGAACUCAGGAUGGGGCUGUCAUAGACAGACCCACCAGUAGGAACUGUCACAGAAUGGCCUGCUGAACUGGGAUGUGGAACUGUGGCGGGUGGAGAGGUCAACAGAGGAUUGAGCAUCA"}, "B11": {"name": "chr17:39604750:39604851:-|3pUTR|ENSG00000171532|msi1|total|mutant (ssRNA)", "RNA": "GGGAGUUCUACAGUCCGACGAUCAUUUUGGCGGGAGGGGAAGUGGAUUGAGAGGAAAGAGAGAGGCCAAGACAAUUUGUAACCCGAAUCCGUUUUUCCCUUUUCCUUUUUUUAAACAAACAAACAUACAAAAAAAAAAAAAAACAACAGAGGAUUGAGCAUCA"}, "B12": {"name": "chr1:17067390:17067767:-|3pUTR|ENSG00000117115|msi1|FALSE|unique (ssRNA)", "RNA": "GGGAGUUCUACAGUCCGACGAUCCCCAACAUGCAAAGCCCACAUUUAAAGGCCAGCCUCUGCCCCUUCAGUGAUGCGCUCUUUAGAAAUGCCAGUCCACUAUAUUCAGAAAUCCGCAGGGCACAAAACUUCCAGCAAGUCACUCAACAGAGGAUUGAGCAUCA"}, "B13": {"name": "chr7:39987650:39987751:+|CDS|ENSG00000065883|unk|total|mutant (ssRNA)", "RNA": "GGGAGUUCUACAGUCCGACGAUCUCCCGGCAUUCAAGAUCUCGCCGCAGGCACAGAUUGUCCCGAUCCAGAAGUCGUCAUUCCCGUAUUUCUCCCCGCACACUAACUCUGAAGAGCCGCCUGGCAGCUGAAUUGAACAAGAAUCAACAGAGGAUUGAGCAUCA"}, "B14": {"name": "chr12:123761472:123761573:+|3pUTR|ENSG00000185344|unk|total|mutant (ssRNA)", "RNA": "GGGAGUUCUACAGUCCGACGAUCAAUAAGGCAGUUUGAACGAACAGUCUUCCCACAGUCAGGCCAUUUUUGCUGAUUUGGUUCCGAAUUUUCAGAAAUACUCCGUACACUCCACCUGUUCUUUGAUGGGAAUAUCUAAGAAGGCAACAGAGGAUUGAGCAUCA"}, "B15": {"name": "ENSG00000107863:be:win_201|CDS|ENSG00000107863|bound_else_gene|NA|bound_elsewhere_windowed (ssRNA)", "RNA": "GGGAGUUCUACAGUCCGACGAUCUAUUGUUUAUCCCCCAGAGUCUGCAAUUCAAUUUUCAUAUAAGGAUGAAGAAAAUGGAAACAGAGGAGGAAAACAAAGAAACCGCUUGGAACCAAUGGAUACCAUAUUUGUUAAGCAAGUCAACAGAGGAUUGAGCAUCA"}, "B16": {"name": "chr4:112268257:112268372:+|CDS|ENSG00000138660|unk|total|mutant (ssRNA)", "RNA": "GGGAGUUCUACAGUCCGACGAUCAGUAAUCCUACAUCAGCCUCUGAUGAUUCCAAUGGGCUGGAGUGGGAAAAUGAUUUUGUCCGUGCCGAAAUGGAUGAUAAUGGAAAUUCCGAGUAUUCUGGAUUUGUAAAUCCUGUAUUACAACAGAGGAUUGAGCAUCA"}, "B17": {"name": "chr1:202892395:202892497:-|3pUTR|ENSG00000117153|unk|total|mutant (ssRNA)", "RNA": "GGGAGUUCUACAGUCCGACGAUCGCGAGAAGUGACCAUUGUUGGAGCACCAUCCAGAGCCCGUGACCAGUCCAGUGGACAGUCCGUGGGAGAAUCAAAAAUCCUUUCCAGAAUGUCUGUUUCUCACUAUGUGCACCGGGUGAUCAACAGAGGAUUGAGCAUCA"}, "B18": {"name": "chr11:30010719:30012678:-|CDS|ENSG00000182255|control|control|control (ssRNA)", "RNA": "GGGAGUUCUACAGUCCGACGAUCUUUGCUCAAGAAAUUUCGGAGCUCUACUUCUUCUUCCCUGGGGGACAAGUCAGAGUAUCUAGAGAUGGAAGAAGGAGUUAAGGAAUCUCUGUGUGCAAAGGAGGAGAAGUGUCAGGGAAACAACAGAGGAUUGAGCAUCA"}, "B19": {"name": "chr1:109313209:109313310:-|3pUTR|ENSG00000134243|msi1|total|mutant (ssRNA)", "RNA": "GGGAGUUCUACAGUCCGACGAUCCAGGGCAAUAUUUUUAACUUGGGGCAGGAAGAAGGGAGCAGCAGAGAAUUGACCCGAUACCGCACCUAUUAAAAGAGAACUCUUGCUUCUUCUGAGAUUUUUCAAGCUGUGCUUUGUGUGCAACAGAGGAUUGAGCAUCA"}, "B20": {"name": "chr19:19663270:19663666:-|CDS|ENSG00000105726|control|control|control (ssRNA)", "RNA": "GGGAGUUCUACAGUCCGACGAUCCGGGCAGCCCAAGCCCGGGCCGCAGCCGCGCGCGCUCCUUGCCGCCGGGCCGGCGCUCAUAGCGAACGGUGACGAGCUGGUGGCUGCCGUGUGGCCGUACCGGCGGUUGGCGCUGUUGCGCAACAGAGGAUUGAGCAUCA"}, "B21": {"name": "chr20:7981316:7981417:-|3pUTR|ENSG00000125827|unk|FALSE|bound_elsewhere (ssRNA)", "RNA": "GGGAGUUCUACAGUCCGACGAUCUAAGUUUUCUAAGCAAUAUUUUUCAAGCCAGAAGUCCUCUAAGUCUUGCCAGUACAAGGUAGUCUUGUGAAGAAAAGUUGAAUACUGUUUUGUUUUCAUCUCAAGGGGUUCCCUGGGUCUCAACAGAGGAUUGAGCAUCA"}, "B22": {"name": "chr7:95297675:95299102:-|three_prime_utr|ENSG00000005421|control|control|control (ssRNA)", "RNA": "GGGAGUUCUACAGUCCGACGAUCACAGUGUUUCACAAAGCUCUUUACUGUGAGCUCUAACAGACCGAUUUGCACCCAUGCCAUAGAAACUGAGGCCAUUAUUUCAACCGCUUGCCAUAUUCCGAGGACCCAGUGUUCUUAGCUCAACAGAGGAUUGAGCAUCA"}}, "note": "This is one part of the list."}
{"molecular_target": "T1, UNK ZnF1-6 (called full-length) (human, UniProt Q9C0B0 30-357)", "T1 sequence": "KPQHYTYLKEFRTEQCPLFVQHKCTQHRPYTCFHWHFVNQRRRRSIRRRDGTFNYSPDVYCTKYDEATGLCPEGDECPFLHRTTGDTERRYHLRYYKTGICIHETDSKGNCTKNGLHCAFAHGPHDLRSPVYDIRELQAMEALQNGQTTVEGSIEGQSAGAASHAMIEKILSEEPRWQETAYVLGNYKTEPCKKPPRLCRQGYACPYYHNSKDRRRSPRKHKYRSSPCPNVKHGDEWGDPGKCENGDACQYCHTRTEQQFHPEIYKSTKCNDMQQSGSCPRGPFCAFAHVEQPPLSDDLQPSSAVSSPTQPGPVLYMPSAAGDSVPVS", "assay": "nsRBNS (natural sequence RNA bind-n-seq); RBNS binding buffer (assumed for nsRBNS): 25 mM Tris pH 7.5, 150 mM KCl, 3 mM MgCl2, 0.01% Triton X-100, 500 ug/ml BSA, 20 U/ml SUPERase-In, 4 C; UNK is unkempt and MSI1 is Musashi-1; names of the RNAs are library labels; protein concentration not given here; high values mean tight binding", "units": {"binding signal": "enrichment R"}}
{"binder": "B1", "binding signal": 0.203}
{"binder": "B2", "binding signal": 0.585}
{"binder": "B3", "binding signal": 0.441}
{"binder": "B4", "binding signal": 0.483}
{"binder": "B5", "binding signal": 0.713}
{"binder": "B6", "binding signal": 0.888}
{"binder": "B7", "binding signal": 0.358}
{"binder": "B8", "binding signal": 0.698}
{"binder": "B9", "binding signal": 0.312}
{"binder": "B10", "binding signal": 1.47}
{"binder": "B11", "binding signal": 0.939}
{"binder": "B12", "binding signal": 0.964}
{"binder": "B13", "binding signal": 0.714}
{"binder": "B14", "binding signal": 0.271}
{"binder": "B15", "binding signal": 0.254}
{"binder": "B16", "binding signal": 0.339}
{"binder": "B17", "binding signal": 0.412}
{"binder": "B18", "binding signal": 0.697}
{"binder": "B19", "binding signal": 0.928}
{"binder": "B20", "binding signal": 0.464}
{"binder": "B21", "binding signal": 0.677}
{"binder": "B22", "binding signal": 0.683}
